Test results: PubChem BioAssay AID493208 (National Center for Advancing Translational Sciences (NCATS), 2011)
About 340 (0.77%) of roughly 44,000 compounds were called active. Roughly 5% stayed inconclusive and do not appear here. Calls come from the whole dose curve; as a rule, active = well fitted inhibition curve with a large enough effect; inconclusive = small, poorly fitted or top-dose-only effect; inactive = flat fitted curve, though single readings scatter. Some of the results follow.

Assay: Acumen qHTS Assay for Inhibitors of the mTORC1 Signaling Pathway in MEF (Tsc2-/-, p53-/-) Cells: Sytravon;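 note: plate controls were DMSO for no effect and rapamycin for full effect; nearly all actives have a fitted effect of over 50% in size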
Conditions: phospho-rpS6 immunofluorescence/PI, 24 h; series mostly up to 38.3 µM; activity change, negative = inhibition: at the top concentration
Method in brief: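 Plate MEFs (Tsc2-/-, p53-/-, empty vector) in DMEM/10% FBS; after 24 h add compound, incubate 24 h at 37 degree Celsius; fix in PFA/TX-100, block, stain phospho-rpS6 and 10 uM PI; scan at 488 nm; report % positive cells.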
For Cc1ccc(-c2c(C(=O)NCc3ccc(F)cc3)oc(=O)c3ccccc23)cc1, the “activity change, negative = inhibition” value was inactive: -0.341%. For CC(C)CN(CCNC(=O)c1cn(C)c2ccc(S(=O)(=O)N3CCOCC3)cc2c1=O)CC(C)C, the “activity change, negative = inhibition” value was inactive: -1.23%. In the case of CC(=O)c1cccc(NC(=O)c2oc(=O)c3ccccc3c2-c2ccccc2)c1, the “activity change, negative = inhibition” value is reported as inactive: -2.82%. In the case of Cc1ccccc1NC(=O)Cn1c(=O)n(Cc2ccc3c(c2)OCO3)c(=O)c2ccc(C(=O)NC3CCCCC3)cc21, the “activity change, negative = inhibition” value is reported as inactive: 4.28%. In the case of Cc1ccc2cccc(NC(=O)c3ccc(-c4cccc(Cl)c4Cl)o3)c2n1, the “activity change, negative = inhibition” value is reported as inactive: 8.9%. In the case of CSCCC(NS(=O)(=O)c1ccc2c(c1)oc(=O)n2C)C(=O)NCc1ccccc1 (stereo unspecified), the “activity change, negative = inhibition” value is reported as inactive: 1.16%. With COc1ccc(CCCc2nnc(SCC(=O)Nc3ccc(F)cc3)o2)cc1C the “activity change, negative = inhibition” value was inactive: -15.4%. In the case of O=C(NCc1ccc(F)cc1)C1CCCCN1S(=O)(=O)c1ccc(F)cc1 (stereo unspecified), the “activity change, negative = inhibition” value is reported as inactive: -2.61%. With CCC(=O)N1CCc2cc(S(=O)(=O)CCC(=O)N3CCN(c4cccc(Cl)c4)CC3)ccc21 the “activity change, negative = inhibition” value was inactive: 0.0442%. In the case of Cc1cc(C)cc(NC(=O)c2oc3ccc4c(c3c2C)C(=O)CC(C)(C)O4)c1, the “activity change, negative = inhibition” value is reported as inactive: -0.0942%. With COc1ccc2c(c1)c1c(c(=O)n(Cc3ccccc3)c(=O)n1CC(=O)NCc1ccc(C)cc1)n2C the “activity change, negative = inhibition” value was inactive: -4.51%. In the case of COc1ccc(N2CCN(C(=O)CCC(=O)NNc3nc4ccccc4c4nc(C)nn34)CC2)cc1, the “activity change, negative = inhibition” value is reported as inactive: 0.733%. For Cc1ccc(OCc2nnc(SCC(=O)Nc3ccccc3C(C)C)o2)cc1, the “activity change, negative = inhibition” value was inactive: -0.0164%. For CCOC(=O)c1cc(C)n(CC2CCC(C(=O)Nc3ccc(C)cc3)CC2)c1C (stereo unspecified), the “activity change, negative = inhibition” value was inactive: -8.78%. For CCc1ccc(NC(=O)c2ccc3nc(C(C)C)oc3c2)cc1, the “activity change, negative = inhibition” value was inactive: 1.91%. In the case of COc1cc(OC)c(NC(=O)Cn2c(=O)cc(C)c3c(C)nn(-c4ccc(C)cc4)c32)cc1Cl, the “activity change, negative = inhibition” value is reported as inactive: -0.571%. With CCOC(=O)N1CCC2(CC1)OC(=O)C(C)=C2C(=O)NCc1ccc(C)cc1 the “activity change, negative = inhibition” value was inactive: -4.99%. For CCNC(=O)c1ccc(CSc2nc3cccnc3n2Cc2ccc(OC)cc2)cc1, the “activity change, negative = inhibition” value was inactive: 2.76%. For COC(=O)Cn1ccc2cc(S(=O)(=O)N3CCCCCC3)ccc21, the “activity change, negative = inhibition” value was inactive: -8.69%. In the case of CCN(C(=O)CN1C(=O)COc2ccc(S(=O)(=O)N3CCOCC3)cc21)c1cccc(C)c1, the “activity change, negative = inhibition” value is reported as inactive: -3.92%. In the case of CCCc1cnc2c(c1SCC(=O)Nc1c(C)cc(C)cc1C)c(=O)n(C)c(=O)n2C, the “activity change, negative = inhibition” value is reported as inactive: -0.273%. In the case of CCc1nn(-c2ccccc2)c2nc(-c3ccc(O)cc3)c3cc(OC)c(OC)cc3c12, the “activity change, negative = inhibition” value is reported as inactive: -0.227%. With COC(=O)c1ccc(NC(=O)Cn2c(-c3nonc3N)nc3ccccc32)cc1 the “activity change, negative = inhibition” value was inactive: 1.82%. For Cc1cccc(-c2nc(CN3CCCC(C(=O)NCc4ccc(Cl)cc4)C3)c(C)o2)c1 (stereo unspecified), the “activity change, negative = inhibition” value was inactive: -2.86%. For Cc1nn(CC(=O)N2CCC(C)CC2)c(=O)c2cc3occc3n12, the “activity change, negative = inhibition” value was inactive: 1.61%. With COc1cccc(NC(=O)N(Cc2c[nH]c3ccccc23)C2CCCCCC2)c1 the “activity change, negative = inhibition” value was inactive: -11.9%.
